Measured values: US20210017279A1 (NANJING LEGEND BIOTECH, published 2021)

T1: human LAG-3 expressed on CHO-K1 cells (human, UniProt P18627 29-525)
T1 construct: also called CHO-huLAG-3 cells; LAG-3 expressed on CHO cells
T1 sequence: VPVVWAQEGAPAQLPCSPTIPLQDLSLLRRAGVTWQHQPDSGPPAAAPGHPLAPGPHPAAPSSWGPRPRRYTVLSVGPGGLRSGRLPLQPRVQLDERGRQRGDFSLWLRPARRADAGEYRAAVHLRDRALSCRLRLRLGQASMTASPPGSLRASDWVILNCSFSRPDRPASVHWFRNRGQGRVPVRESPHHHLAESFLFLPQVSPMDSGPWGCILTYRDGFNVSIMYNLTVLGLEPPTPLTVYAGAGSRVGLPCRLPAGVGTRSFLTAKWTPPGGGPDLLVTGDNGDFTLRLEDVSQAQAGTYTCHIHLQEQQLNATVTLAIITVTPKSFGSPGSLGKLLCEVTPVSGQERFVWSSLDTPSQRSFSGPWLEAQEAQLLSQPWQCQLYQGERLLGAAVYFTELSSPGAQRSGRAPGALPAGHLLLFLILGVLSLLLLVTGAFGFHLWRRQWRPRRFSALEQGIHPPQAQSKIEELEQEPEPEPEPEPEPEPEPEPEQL

T2: Human LAG-3-His (human, UniProt P18627 29-450)
T2 construct: Bought recombinant protein; also called Human LAG-3 protein (Acrobiosystem, 772-6BGF2-D5); not shown: His tag
T2 sequence: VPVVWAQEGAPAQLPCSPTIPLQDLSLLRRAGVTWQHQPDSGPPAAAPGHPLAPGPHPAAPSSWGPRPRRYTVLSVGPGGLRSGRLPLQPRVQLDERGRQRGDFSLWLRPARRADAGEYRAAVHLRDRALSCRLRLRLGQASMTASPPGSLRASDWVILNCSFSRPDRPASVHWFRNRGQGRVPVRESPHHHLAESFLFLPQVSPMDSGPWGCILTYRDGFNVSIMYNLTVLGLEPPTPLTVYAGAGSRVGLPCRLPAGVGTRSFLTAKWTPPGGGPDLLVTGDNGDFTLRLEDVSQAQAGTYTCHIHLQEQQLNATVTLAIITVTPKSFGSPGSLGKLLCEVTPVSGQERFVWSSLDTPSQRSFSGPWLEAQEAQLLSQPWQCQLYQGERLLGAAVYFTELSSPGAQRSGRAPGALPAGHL

T3: LAG-3-Fc (human, UniProt P18627 29-450, biotinylated (in the blocking assays))
T3 construct: Recombinant LAG-3-Fc (Acrobiosystems / R&D Systems); also called biotinylated LAG-3-Fc protein; not shown: Fc part
T3 sequence: T2 sequence

B1: AS20592-Fc (Fc fusion)
chain: EVQLVESGGGSVQAGGSLRLSCAASGYIISSYCMGWFRQAPGKEREGVAAIDSDGGTSYADSVKGRFTISKDNAKNTLYLQMDSLKPEDTAMYYCAADFCWVDEDRHLYEYNSWGQGTQVTVSS[letters of human IgG4 Fc with S228P (EU numbers) omitted]
notes: also called AS20592 HCAb; non-humanized anti-LAG-3 sdAb-Fc fusion protein
B2: AS20594-Fc (Fc fusion)
chain: QVQLAESGGGSVQAGGSLRLSCAASGYTISSYCMGWFRQAPGKEREGVAAIDSDGSTSYADSVKGRFTISKDNAKNTLYLQMNSLKPEDTAMYYCAADFCWVDDFYEYNYWGQGTQVTVSS[letters of human IgG4 Fc with S228P (EU numbers) omitted]
notes: also called AS20594 HCAb; non-humanized anti-LAG-3 sdAb-Fc fusion protein
B3: AS20601-Fc (Fc fusion)
chain: EVQLAESGGGSVQAGGSLRLSCAASGYTYGGYCMGWFRQAPGKEREGVATINSDGSTNYADSVKGRFTISKDNAKNTLYLQMNSLSPEDTAMYYCAVDLAPCWVAGPIEAADFGYWGQGTQVTVSS[letters of human IgG4 Fc with S228P (EU numbers) omitted]
notes: also called AS20601 HCAb; non-humanized anti-LAG-3 sdAb-Fc fusion protein
B4: AS20846-Fc (Fc fusion)
chain: QVHLMESGGGSVQVGGSLRLSCAASGYTVSSYCMGWFRQAPGKEREGVAAIDSDGSVSYADSVKGRFTISKDNAKNTLYLQMNSLKPEDTAMYFCAADLCWVDQDQGEYNTWGQGTQVTVSS[letters of human IgG4 Fc with S228P (EU numbers) omitted]
notes: also called AS20846 HCAb; non-humanized anti-LAG-3 sdAb-Fc fusion protein
B5: AS20592VH10-Fc (Fc fusion)
chain: B1 chain with S11L, A14P, E44G, R45L, A74S, D83N, K86R, P87A, Q119L
notes: also called AS20592VH10 HCAb; humanized anti-LAG-3 sdAb-Fc fusion protein
B6: AS20601VH4-Fc (Fc fusion)
chain: EVQLVESGGGLVQPGGSLRLSCAASGYTYGGYCMGWFRQAPGKGLEGVSTINSDGSTNYADSVKGRFTISRDNSKNTLYLQMNSLRAEDTAVYYCAVDLAPCWVAGPIEAADFGYWGQGTLVTVSS[letters of human IgG4 Fc with S228P (EU numbers) omitted]
notes: also called AS20601VH4 HCAb; humanized anti-LAG-3 sdAb-Fc fusion protein
B7: AS20846VH12-Fc (Fc fusion)
chain: EVQLVESGGGLVQPGGSLRLSCAASGYTVSSYCMGWFRQAPGKGREGVSAIDSDGSVSYADSVKGRFTISKDNSKNTLYLQMNSLRAEDTAVYFCAADLCWVDQDQGEYNTWGQGTLVTVSS[letters of human IgG4 Fc with S228P (EU numbers) omitted]
notes: also called AS20846VH12 HCAb; humanized anti-LAG-3 sdAb-Fc fusion protein
B8: AS20594VH10-Fc (Fc fusion)
chain: EVQLVESGGGLVQPGGSLRLSCAASGYTISSYCMGWFRQAPGKGLEGVAAIDSDGSTSYADSVKGRFTISKDNSKNTLYLQMNSLRAEDTAVYYCAADFCWVDDFYEYNYWGQGTLVTVSS[letters of human IgG4 Fc with S228P (EU numbers) omitted]
notes: also called AS20594VH10 HCAb; humanized anti-LAG-3 sdAb-Fc fusion protein

Each binder was assayed against T4, cynomolgus LAG-3 expressed on CHO-K1 cells (cynomolgus) (assay: flow cytometry on CHO-K1 cells expressing cynomolgus LAG-3).
T4 construct: whole, on cells
Description: (§1) To determine cell binding EC₅₀, CHO-K1 cells expressing human or cynomolgus LAG-3 were harvested and incubated with anti-LAG-3 sdAb-Fc fusion proteins at gradient concentrations, followed by fluorophore-labeled secondary antibodies against human Fc. […] The samples were then analyzed with flow cytometry. The binding and blocking curves were shown in FIG. 4 and FIG. 5, respectively.

| Binder | EC50 [pM] |
| --- | --- |
| B1 | 1830 |
| B2 | 1020 |
| B3 | 1610 |
| B4 | 1230 |

Each binder was assayed against T1, human LAG-3 expressed on CHO-K1 cells (assay: flow cytometry on CHO cells expressing LAG-3; Experiment 1).

| Binder | EC50 [pM] |
| --- | --- |
| B1 | 1240 |
| B2 | 304 |
| B3 | 229 |
| B4 | 342 |

Each binder was assayed against T2, Human LAG-3-His (assay: SPR (Biacore T200), as in Example 3; Experiment 1).

| Binder | Kd [pM] |
| --- | --- |
| B2 | 110 |
| B3 | 42 |
| B4 | 67 |

Each binder was assayed against T3, LAG-3-Fc (assay: flow cytometry competition; blocks LAG-3-Fc binding to MHC II on A375 cells; Experiment 2).

| Binder | EC50 [pM] |
| --- | --- |
| B5 | 47400 |
| B6 | 49800 |
| B7 | 48800 |

These binders were tested against T5, Cynomolgus LAG-3-Fc (cynomolgus) (assay: SPR (Biacore T200); cynomolgus LAG-3 immobilized, antibody injected).
T5 construct: Bought recombinant protein; also called cynomolgus LAG-3 protein (Acrobiosystem, 2187-71HF1-DZ)

| Binder | Kd [pM] | koff [s⁻¹] | kon [M⁻¹ s⁻¹] |
| --- | --- | --- | --- |
| B5 | 39000 | 0.0015 | 37000 |
| B8 | 51000 | 0.0033 | 65000 |
| B6 | 76000 | 0.007 | 92000 |
| B7 | 49000 | 0.0015 | 31000 |

Each binder was assayed against T2, Human LAG-3-His (assay: SPR (Biacore T200); antibody captured on chip, human LAG-3 injected).

| Binder | Kd [pM] | koff [s⁻¹] | kon [M⁻¹ s⁻¹] |
| --- | --- | --- | --- |
| B5 | 470 | 0.00065 | 1.4e+06 |
| B8 | 490 | 0.00079 | 1.6e+06 |
| B6 | 100 | 0.00033 | 3.2e+06 |
| B7 | 460 | 0.0006 | 1.3e+06 |

These binders were tested against T1, human LAG-3 expressed on CHO-K1 cells (assay: flow cytometry on CHO-K1 cells expressing human LAG-3).
Description: as §1

| Binder | EC50 [pM] |
| --- | --- |
| B1 | 686 |
| B2 | 390 |
| B3 | 494 |
| B4 | 462 |

The binders below were run against LAG-3 on Thaw-and-Use LAG-3 Effector cells (assay: cell-based or functional assay).

| Binder | LAG-3 blockade reporter assay EC50 [pM] | LAG-3 blockade reporter assay Signal span (% activation) |
| --- | --- | --- |
| B5 | 890 | 92 |
| B6 | 3980 | 92.7 |
| B7 | 3130 | 83.3 |

Biological target: LAG-3 on Thaw-and-Use LAG-3 Effector cells
Assay: cell-based or functional assay
Remark: another data set of the same source

| Binder | LAG-3 blockade reporter assay EC50 [pM] |
| --- | --- |
| B1 | 2330 |
| B2 | 1670 |
| B3 | 1340 |
| B6 | 3980 |
| B4 | 1990 |
| B7 | 3120 |

Each binder was assayed against T3, LAG-3-Fc (assay: flow cytometry competition; blocks LAG-3-Fc binding to MHC II on A375 cells; Experiment 1).

| Binder | EC50 [pM] |
| --- | --- |
| B1 | 781 |
| B2 | 1060 |
| B3 | 844 |
| B4 | 802 |

The binders below were run against T2, Human LAG-3-His (assay: SPR (Biacore T200), as in Example 3; Experiment 2).

| Binder | Kd [pM] |
| --- | --- |
| B5 | 470 |
| B6 | 100 |
| B7 | 460 |

The binders below were run against T3, LAG-3-Fc (assay: flow cytometry competition; span of the blocking curve, LAG-3-Fc binding to MHC II on A375 cells).
Description: as §1

| Binder | Span |
| --- | --- |
| B1 | 233 |
| B2 | 328 |
| B3 | 260 |
| B4 | 355 |

Each binder was assayed against T2, Human LAG-3-His (assay: SPR (Biacore T200); antibody captured on chip, LAG-3 injected).

| Binder | Kd [pM] | koff [s⁻¹] | kon [M⁻¹ s⁻¹] |
| --- | --- | --- | --- |
| B1 | 110 | 0.00022 | 2.1e+06 |
| B2 | 110 | 0.00024 | 2.2e+06 |
| B3 | 42 | 0.00018 | 4.4e+06 |
| B4 | 67 | 0.00015 | 2.2e+06 |

Each binder was assayed against T5, Cynomolgus LAG-3-Fc in the same assay as above.

| Binder | Kd [pM] | koff [s⁻¹] | kon [M⁻¹ s⁻¹] |
| --- | --- | --- | --- |
| B1 | 93 | 0.00042 | 4.5e+06 |
| B2 | 52 | 0.00028 | 5.3e+06 |
| B3 | 290 | 0.0035 | 1.2e+07 |
| B4 | 42 | 0.00022 | 5.4e+06 |

The binders below were run against T3, LAG-3-Fc (assay: flow cytometry competition; blocks biotinylated LAG-3-Fc binding to MHC II on A375 cells).
Description: as §1

| Binder | EC50 [pM] |
| --- | --- |
| B1 | 5540 |
| B2 | 6580 |
| B3 | 7990 |
| B4 | 3720 |

The binders below were run against T1, human LAG-3 expressed on CHO-K1 cells (assay: flow cytometry on CHO cells expressing LAG-3; Experiment 2).
Description: as §1

| Binder | EC50 [pM] |
| --- | --- |
| B5 | 10500 |
| B6 | 14500 |
| B7 | 12400 |

Where a chain is given by its changes, count along the chain named.
